Values joined by “and” are separate entries in the source; they are usually repeats but may differ in a detail not shown here. Equal entries are not always repeated. In all, about 110,000 compounds went through this assay and about 230 (0.21%) showed an effect of 50% or more. The list shows a part of the results.
What follows are compounds tested against DPAP1 (Plasmodium falciparum, UniProt Q8IIJ9) (assay: primary screen, percent inhibition; read by cleavage of a fluorogenic dipeptide substrate; higher = more effect of the substance).
Sequence of DPAP1 (Q8IIJ9 whole entry, looked up): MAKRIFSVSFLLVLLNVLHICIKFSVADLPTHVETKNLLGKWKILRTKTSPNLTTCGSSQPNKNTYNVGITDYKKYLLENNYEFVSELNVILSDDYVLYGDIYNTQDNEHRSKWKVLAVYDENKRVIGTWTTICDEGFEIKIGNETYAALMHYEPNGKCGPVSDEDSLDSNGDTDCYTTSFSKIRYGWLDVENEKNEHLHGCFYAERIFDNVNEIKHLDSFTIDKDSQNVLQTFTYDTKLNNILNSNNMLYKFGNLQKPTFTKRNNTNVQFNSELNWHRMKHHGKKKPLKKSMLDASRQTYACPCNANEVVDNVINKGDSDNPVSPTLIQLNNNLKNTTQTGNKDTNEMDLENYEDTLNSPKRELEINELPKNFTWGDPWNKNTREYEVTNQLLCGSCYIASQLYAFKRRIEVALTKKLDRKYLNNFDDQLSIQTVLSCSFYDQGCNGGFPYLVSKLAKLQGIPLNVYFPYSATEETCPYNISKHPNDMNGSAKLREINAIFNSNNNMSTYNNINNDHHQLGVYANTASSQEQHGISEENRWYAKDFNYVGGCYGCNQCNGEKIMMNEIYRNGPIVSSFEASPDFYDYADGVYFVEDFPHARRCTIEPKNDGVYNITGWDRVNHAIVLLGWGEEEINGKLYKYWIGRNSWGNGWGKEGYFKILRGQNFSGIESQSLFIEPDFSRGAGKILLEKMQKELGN
Set-up: species or system P. falciparum D10 trophozoite lysates; single well
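Also: 30 min substrate incubation versus DMSO and 10 µM JCP410 controls.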

Compared with CC(=O)NC1=NC(=O)/C(=C/c2cn(C)c3ccccc23)S1, COC(=O)C1=C(C)N(Cc2ccccc2)C(=O)/C1=C\c1cccc(O)c1 is higher in “% Inhibition @ 10 uM” value: 0.812% for the first, 3.43% for the second.

Going from CC12CN3CC(C)(CN(C1)C31CCCCC1)C2O (centres unmarked) to COc1ccc(N2CCN(C(=O)NC3(C(=O)NCC#N)CCCCC3)CC2)cc1, the “% Inhibition @ 10 uM” value rises from -9.93% to 4.63%.

Going from CCn1c(C)nc2cc(Cl)c(Cl)cc21 to CCCN(Cc1cc(Cl)cc(Cl)c1O)CC1CC1, the “% Inhibition @ 10 uM” value falls from 1.44% to -1.21%.

Going from CC(C)CNS(=O)(=O)c1ccc(CCC(=O)N2CCN(c3cccc(Cl)c3)CC2)cc1 to Cc1cccc(NC(=O)CCc2ccc(S(=O)(=O)NC3CCCCC3)cc2)c1, the “% Inhibition @ 10 uM” value rises from -5.29% to 3.37%.

Compared with CC(O)CNc1nc2c(c(=O)n(Cc3ccccc3)c(=O)n2C)n1C (centres unmarked), Cn1c(=O)c2c(nc(CN3CCCCC3)n2CCCc2ccccc2)n(C)c1=O is lower in “% Inhibition @ 10 uM” value: 0.279% for the first, -1.43% for the second.

First: O=C(NCc1nc2ccccc2[nH]1)c1cccnc1
Second: COC(=O)c1ccc(CSc2nc3ccncc3[nH]2)cc1
The “% Inhibition @ 10 uM” value of the first is lower: -2.28% for the first, 1.72% for the second.

Going from Cc1ccc(-c2c(O)c(=O)/c2=N\CCN2CCCCC2C)cc1 (centres unmarked) to Cc1ccc(CNC(=O)c2ccc3nc(N4CCC(C)CC4)sc3c2)cc1, the “% Inhibition @ 10 uM” value rises from -2.57% to -0.637%.

Going from Cc1cc(C)c(S(=O)(=O)NCC(=O)NC(C)(C)C)c(C)c1 to O=C(CNS(=O)(=O)c1cc(Cl)ccc1Cl)Nc1ccc(F)cc1, the “% Inhibition @ 10 uM” value falls from 0.964% to -2.83%.

Compared with COCC/N=c1\cc(-c2ccccc2)oc2ccc(Br)cc12, Oc1nc(-c2ccccc2)nc2c1oc1ccccc12 is higher in “% Inhibition @ 10 uM” value: 0.561% for the first, 6.51% for the second.

First: CCOc1cc(C2C(C(=O)c3ccc(OC)cc3)=C(O)C(=O)N2Cc2ccco2)ccc1O (centres unmarked)
Second: COc1ccc(C2C(C(=O)c3ccccc3)=C(O)C(=O)N2Cc2ccccc2)c(OC)c1 (centres unmarked)
The “% Inhibition @ 10 uM” value of the first is higher: 1.64% for the first, -5.13% for the second.

Going from OC1CCCN(Cc2ccc(-c3cccc(Cl)c3)o2)C1 (centres unmarked) to CC1CCN(C(=O)c2cc(-c3cccc(O)c3)on2)CC1, the “% Inhibition @ 10 uM” value falls from 1.9% to -3.12%.

Going from COc1ncccc1C(=O)NCC(CC(=O)O)c1ccc(Cl)cc1 (centres unmarked) to Cc1cc(Cl)ccc1OCC(=O)Nc1ccc(Cl)cc1, the “% Inhibition @ 10 uM” value falls from -3.16% to -5.32%.

Going from Cc1cc(C)c2c3c(sc2n1)C(c1c(F)cccc1Cl)C(C#N)=C(N)O3 (centres unmarked) to COc1ccc(C2C(C#N)=C(N)Oc3c2c(O)nc2ccccc32)cc1 (centres unmarked), the “% Inhibition @ 10 uM” value falls from 4.54% to -4.04%.

Compared with O=C(/C=C/c1ccccc1)Nc1nnc(Cc2ccc(Cl)cc2)s1, CC(=O)c1nc2ccccc2n1Cc1ccc(Cl)cc1 is lower in “% Inhibition @ 10 uM” value: 19.6% for the first, -6.17% for the second.

Going from CCOC(=O)c1c(C)n(-c2ccccc2)c2cc(Br)c(O)cc12 to CCC(=O)N(Cc1ccco1)C1CC(=O)N(c2ccccc2)C1=O (centres unmarked), the “% Inhibition @ 10 uM” value rises from -1.18% to 0.76%.

First: O=C(CCCn1c(=O)[nH]c2ccsc2c1=O)N1CC=C(c2ccccc2)CC1
Second: O=C(NCCc1ccccc1)c1cccc2c1C(=O)N(CC1CCCO1)C2 (centres unmarked)
The “% Inhibition @ 10 uM” value of the first is higher: -0.972% for the first, -1.03% for the second.

Compared with COc1cc(CNC2CCN(C(C)=O)CC2)cc(OC)c1, CCOC(=O)N1CCC(NCCOC)CC1 is higher in “% Inhibition @ 10 uM” value: -7.18% for the first, -5.44% for the second.

First: O=C(c1csc2ccccc12)N1CCN(c2ncccn2)CC1
Second: O=C(c1ccccc1)N1CCN(c2ccc(NCc3ccc4c(c3)OCO4)cc2)CC1
The “% Inhibition @ 10 uM” value of the first is higher: 5.29% for the first, -5.23% for the second.

Going from Cc1nc(-c2ccc(C(=O)Nc3ccccc3F)cc2)cs1 to CCc1ccccc1NC(=O)c1ccc(C(C)(C)C)cc1, the “% Inhibition @ 10 uM” value falls from 2.06% to 1.13%.

Compared with CN1C(N)=NC(=O)/C1=C/c1cc(Br)c(O)c(Br)c1, Cc1ccc(/C=C/C(=O)c2cc3cc(Cl)ccc3oc2=O)cc1 is higher in “% Inhibition @ 10 uM” value: -4.51% for the first, -3.28% for the second.

Going from O=C(/C=C/c1ccco1)Nc1cccnc1 to Cc1cccc(C(=O)Nc2ccc(Br)cc2)c1, the “% Inhibition @ 10 uM” value rises from -6.91% to -1.62%.

Compared with Cc1ccccc1OCCCc1c(C)n[nH]c1C, COc1ccccc1CNC(=O)CCCOc1ccc(Cl)cc1Cl is higher in “% Inhibition @ 10 uM” value: 0.634% for the first, 8.06% for the second.

First: Oc1ccccc1-c1n[nH]c(-c2ccccc2O)n1
Second: NC(=O)c1ccccc1NC(=O)c1cc(-c2ccccc2Cl)nc2ccccc12
The “% Inhibition @ 10 uM” value of the first is lower: -1.56% for the first, 17.8% for the second.

First: CC(C)c1ccc(NC(=O)CN(c2cccc(F)c2)S(C)(=O)=O)cc1
Second: CC(C)(C)NC(=O)c1ccc(NC(=O)CSc2ccc(Cl)cc2)cc1
The “% Inhibition @ 10 uM” value of the first is lower: -5.51% for the first, -1.11% for the second.

Compared with O=C(CN1CCc2ccccc2C1)Nc1ccc(Oc2ccccc2)cc1, CC(=O)Nc1ccc(S(=O)(=O)N2CCN(Cc3ccccc3)CC2)cc1 is lower in “% Inhibition @ 10 uM” value: -1.17% for the first, -2.44% for the second.

Compared with Cc1ccc(C(O)C(=O)c2ccccc2)o1 (centres unmarked), O=C(Nc1ccccc1)C(C(=O)c1ccccc1)S(=O)(=O)c1ccccc1 (centres unmarked) is lower in “% Inhibition @ 10 uM” value: 0.0289% for the first, -1.45% for the second.

First: CCn1c(SCC(=O)NCC2CCCO2)nc2c(c1=O)SCC2 (centres unmarked)
Second: Cc1cc2ccccc2c(=O)n1CC(=O)NCC(=O)N1CCC2(CC1)OCCO2
The “% Inhibition @ 10 uM” value of the first is higher: 1.31% for the first, 0.457% for the second.

Compared with CN(C)CP(=O)(O)CCc1ccccc1, CC(=O)N1CCC(N2CCN(Cc3ccccc3)CC2)CC1 is higher in “% Inhibition @ 10 uM” value: -3.27% for the first, -1.64% for the second.

Compared with CCOc1ccc(NC(=O)c2cccc(C(=O)Nc3ccc(OCC)cc3)n2)cc1, COc1ccc(CCCC(=O)Nc2cccc(OC)c2)cc1 is lower in “% Inhibition @ 10 uM” value: -0.872% for the first, -2.88% for the second.

Compared with Cn1ccc(C(=O)Nc2cnn(Cc3ccc(Cl)c(Cl)c3)c2)n1, Cc1ccc(Cn2nc(C)c(NC(=O)C3CC3)c2C)cc1 is higher in “% Inhibition @ 10 uM” value: -1.28% for the first, -0.0619% for the second.

First: O=C(NCc1cccnc1)C1CCC(CNS(=O)(=O)c2cccc3cccnc23)CC1 (centres unmarked)
Second: O=C(NCc1ccccn1)C1CCN(c2nc3ccccc3n3cccc23)CC1
The “% Inhibition @ 10 uM” value of the first is lower: -2.42% for the first, 1.51% for the second.

First: COc1ccc(OC)c(NC(=O)c2ccc([N+](=O)[O-])cc2)c1
Second: COc1cc(C(=O)Nc2ccc(N(C)C(C)=O)cc2)cc(OC)c1OC
The “% Inhibition @ 10 uM” value of the first is higher: 2.54% for the first, -6.67% for the second.

Going from Cc1nnc(N2CCCC(C(=O)N3CCCC3)C2)c2nn(-c3ccccc3)c(C)c12 (centres unmarked) to CCc1ccc(S(=O)(=O)c2nnn3c2nc(N2CCCC2)c2cc(Cl)ccc23)cc1, the “% Inhibition @ 10 uM” value falls from -4.18% to -4.85%.

Compared with Cc1csc(NC(=O)c2sc3nc4c(c(C(F)(F)F)c3c2N)CCC4)n1, CCc1ccc(-c2cc(C(F)(F)F)n3nc(C(=O)NCc4cnn(C)c4C)cc3n2)s1 is lower in “% Inhibition @ 10 uM” value: 5.26% for the first, 1.39% for the second.

Going from CCN(Cc1ccccc1)C(=O)Cn1ncc2c3ccccc3n(Cc3ccccc3)c2c1=O to O=C(C(c1ccccc1)c1ccccc1)N1CCN(C2CCN(Cc3ccccc3)CC2)CC1, the “% Inhibition @ 10 uM” value falls from 4.95% to -9.65%.

Compared with COc1ccc(CN2CCN(C)CC2)c(O)c1, Cc1ccc(-n2c(S)nnc2CN2CCSCC2)cc1 is lower in “% Inhibition @ 10 uM” value: 3.48% for the first, 1.88% for the second.

Compared with Cn1cc(S(=O)(=O)N2CCOCC2)cc1C(=O)NCc1ccccc1, O=C(NCCN1CCOCC1)c1ccc(CS(=O)(=O)c2ccc(Br)cc2)o1 is lower in “% Inhibition @ 10 uM” value: 1.96% for the first, -4.53% for the second.

Compared with COc1ccc(C2C3=C(O)CC(C)(C)CC3=NC(C)=C2C(=O)Nc2cc(C)ccn2)c(OC)c1 (centres unmarked), COc1cccc(-c2ccc(-c3noc(-c4cccc(C)c4)n3)c(OC)n2)c1 is higher in “% Inhibition @ 10 uM” value: -9.79% for the first, -3.13% for the second.

First: CCO/C=C1/C(=O)N(c2ccc(OC)cc2)C(=O)c2cc(OC)ccc21
Second: CCOc1ccc(N2C(=O)CC(NCCc3ccccc3F)C2=O)cc1 (centres unmarked)
The “% Inhibition @ 10 uM” value of the first is higher: 9.02% for the first, 4.27% for the second.

Going from CCCC(=O)N1c2ccccc2Sc2ccccc21 to Cc1nc2ccccc2n1C/C=C/c1ccccc1, the “% Inhibition @ 10 uM” value rises from -5.94% to 4.94%.

Compared with Cc1cc(C)nc(NC(=O)Nc2cccc(Cl)c2)c1, Cc1cccc(N2C(=O)C(Cl)=C(Nc3ccc(F)cc3)C2=O)c1 is lower in “% Inhibition @ 10 uM” value: 2.48% for the first, -2.45% for the second.

Compared with Cc1cc(-c2ccco2)n(CC(=O)NCCCc2ccccc2)n1, O=C(CN1C(=O)c2ccccc2Sc2ncccc21)NCc1cccc(Cl)c1 is lower in “% Inhibition @ 10 uM” value: -1.75% for the first, -8.19% for the second.

Going from COc1ccc(/C=N/OCc2cccc(Br)c2)cc1OC to CCOC(=O)N1CCC(NC(=O)c2cc(C(=O)NCc3cccc(Cl)c3)ccc2CO)CC1, the “% Inhibition @ 10 uM” value falls from 4.54% to -1.03%.

Compared with Cc1c(CCC(=O)O)c(=O)oc2c(C)c3oc4c(c3cc12)CCCC4, CCOC(=O)N1CCN(C(=O)c2ccc(C#CC(C)(C)O)cc2)CC1 is lower in “% Inhibition @ 10 uM” value: 3.81% for the first, -1.32% for the second.

First: CC(C)CNC(=O)C1CCN(C(=O)c2ccc(F)cc2)CC1
Second: Cc1ccc(S(=O)(=O)N2CCC(C(=O)Nc3ccc(C(F)(F)F)cc3)CC2)cc1
The “% Inhibition @ 10 uM” value of the first is higher: 0.316% for the first, -6.43% for the second.

Going from O=C(CNS(=O)(=O)c1ccccc1)Nc1ccccc1F to O=C(CSc1nc2ccc(Br)cc2c2nc3ccccc3n12)Nc1nccs1, the “% Inhibition @ 10 uM” value falls from 0.964% to -2.92%.

First: CCS(=O)(=O)c1nc(S(=O)(=O)c2ccc(C)cc2)c(N2CCC3(CC2)OCCO3)s1
Second: Cc1cc(N2CCN(c3ccco3)CC2)n2nc(C)nc2n1
The “% Inhibition @ 10 uM” value of the first is higher: -0.522% for the first, -2.8% for the second.

Going from OC1=C2C(=Nc3ccccc3NC2c2ccsc2)CC(c2cccs2)C1 (centres unmarked) to N#CC1=C(N)Oc2[nH]nc(-c3ccccn3)c2C1c1ccco1 (centres unmarked), the “% Inhibition @ 10 uM” value falls from -1.06% to -4.41%.

Compared with CCOCCCNC(=O)NC(C)c1c(-n2cccc2)sc2c1CCN(C)C2 (centres unmarked), Cc1cc(C)n(CC(O)COCc2ccco2)n1 (centres unmarked) is higher in “% Inhibition @ 10 uM” value: 3.95% for the first, 4.05% for the second.

Compared with OCCSCc1nc(O)c2c(n1)-c1ccccc1CC21CCCCC1, O=C1c2cccc3cccc(c23)C(=O)N1CCCN1C(=O)c2cccc3cccc(c23)C1=O is higher in “% Inhibition @ 10 uM” value: 6.38% for the first, 12.1% for the second.

In the case of CC(C)OCC(O)CN1CCN(c2ccccc2)CC1 (centres unmarked), the “% Inhibition @ 10 uM” value is reported as -0.884% and 4.08%.

Source: article PMC6919601, “Identification of Plasmodium dipeptidyl aminopeptidase allosteric inhibitors by high throughput screening” (PLoS ONE, 2019)
